Whole data set: some 33,000 sequences, median “E-score (-0.5 to 0.5)” near -0.021, cut for the highest 2% near 0.32. Some of the results follow.

This experiment concerns the target T1, Zap1 (UniProt P47043).
T1 sequence: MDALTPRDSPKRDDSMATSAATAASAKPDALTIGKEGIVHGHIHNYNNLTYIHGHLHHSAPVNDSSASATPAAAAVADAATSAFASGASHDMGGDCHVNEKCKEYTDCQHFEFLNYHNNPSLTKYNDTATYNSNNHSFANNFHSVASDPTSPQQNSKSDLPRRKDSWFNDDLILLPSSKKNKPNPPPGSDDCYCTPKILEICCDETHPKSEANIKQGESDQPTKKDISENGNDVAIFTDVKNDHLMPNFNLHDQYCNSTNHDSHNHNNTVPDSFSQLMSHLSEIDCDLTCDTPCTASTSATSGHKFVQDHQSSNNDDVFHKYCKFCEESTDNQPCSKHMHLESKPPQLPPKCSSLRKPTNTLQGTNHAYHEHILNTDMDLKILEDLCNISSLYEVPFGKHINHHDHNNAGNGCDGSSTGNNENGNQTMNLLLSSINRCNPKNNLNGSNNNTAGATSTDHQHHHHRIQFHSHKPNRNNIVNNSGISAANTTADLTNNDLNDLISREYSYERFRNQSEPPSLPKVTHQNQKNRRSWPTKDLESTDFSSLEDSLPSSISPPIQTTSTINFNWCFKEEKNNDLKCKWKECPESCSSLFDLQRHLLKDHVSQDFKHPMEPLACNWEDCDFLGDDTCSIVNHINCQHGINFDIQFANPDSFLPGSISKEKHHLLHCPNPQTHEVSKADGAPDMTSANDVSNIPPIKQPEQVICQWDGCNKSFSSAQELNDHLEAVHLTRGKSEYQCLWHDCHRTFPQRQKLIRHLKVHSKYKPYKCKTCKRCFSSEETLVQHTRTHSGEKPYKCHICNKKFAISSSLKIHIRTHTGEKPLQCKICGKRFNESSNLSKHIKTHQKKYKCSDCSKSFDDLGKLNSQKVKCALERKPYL
As to the kind of experiment: PBM E-score (8-mer binding enrichment) (E-score (-0.5 to 0.5)); higher = stronger / more preferred TF binding; most listed sequences are background and not binding sites. Conditions: protein concentration: 200 nM; construct: GST-full length. As for the experimental part:
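Universal 'all 10-mer' protein binding microarrays (Agilent AMADID 015681) probed with GST-tagged S. cerevisiae TFs (full-length or DBD) made by in vitro transcription/translation (PURExpress), about 100-200 nM. Bound TF was detected with fluorescent anti-GST. Each ungapped 8-mer (which stands for itself and its reverse complement) is scored by the PBM enrichment score (E-score), a modified Wilcoxon-Mann-Whitney statistic from -0.5 to +0.5, computed with the Universal PBM Analysis Suite. Scale: above 0.35 generally sequence-specific binding.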
With CGCCGTTA, the “PBM E-score” value is -0.0676. GGAATGAC: the “PBM E-score” value was -0.079. GGTTCCCA: the “PBM E-score” value is 0.164.

As to CCCAACAG, the “PBM E-score” value was -0.119. Take GTCACGAC: the “PBM E-score” value turned out to be 0.124. For the sequence ATAACCAC, the “PBM E-score” value was 0.46. With AAATCAGT, the “PBM E-score” value was -0.0332. Consider ATTGGAGC, for which the “PBM E-score” value is -0.117.

With GAACAGGA, the “PBM E-score” value was -0.00724. As to ATGTCTAA, the “PBM E-score” value is 0.0432. Regarding AGTGATAC, the “PBM E-score” value was 0.147. CCTCCACA: the “PBM E-score” value was -0.0417. With CAAGTTGC, the “PBM E-score” value was -0.112. On to GTGCCTTA, for which the “PBM E-score” value is -0.0871. Turning to GTTTAACA, the “PBM E-score” value is -0.00677. For AGTACCTC, the “PBM E-score” value turned out to be 0.146.

On to AGGTCGAT, for which the “PBM E-score” value worked out at 0.0976. Under GGCTTCCC stands -0.38; under GATACGAC, 0.065; under GATCTCCA, -0.171.

Take ACTCTTAG: the “PBM E-score” value was 0.106.

As for GATATCGA, the “PBM E-score” value amounted to 0.0362. In the case of ATCCGCCA, the “PBM E-score” value is -0.315. In the case of GAACCAAC, the “PBM E-score” value was found to be 0.113. The result for ACGTTCAT reads -0.1; that for AAGAATCT, 0.0453; that for GGGCCAGA, -0.0833.

As for GACACCCA, the “PBM E-score” value is -0.0772. As to CACCTATA, the “PBM E-score” value amounted to 0.0311. In the case of GACGGTAA, the “PBM E-score” value was found to be 0.0316. The result for AGACGTCG reads -0.222. For the sequence CAATTAGG, the “PBM E-score” value was determined as 0.125. As for CTCCAATA, the “PBM E-score” value turned out to be 0.0589. ACAAAGGA: the “PBM E-score” value came to 0.0193. Under ATCGGCCG stands -0.138. Under GAAGCGAA stands 0.0596; under ACAGACTG, -0.105; under ATGATTAA, 0.159. In the case of TCACACGA, the “PBM E-score” value is 0.0506. For AGTATCGG, the “PBM E-score” value came to 0.00333. Take ACATTCGT: the “PBM E-score” value was -0.0131. As to GCCCTGAC, the “PBM E-score” value was -0.255. TACACTGA: the “PBM E-score” value was -0.0732. In the case of GTAAAGAC, the “PBM E-score” value turned out to be 0.141. For AGCAACCC, the “PBM E-score” value turned out to be 0.239.

Consider AGGGATCA, for which the “PBM E-score” value was determined as 0.0782.

As for ATTAATTC, the “PBM E-score” value came to 0.152. On to CACTGAGC, for which the “PBM E-score” value was -0.214. Consider GTGAGAAC, for which the “PBM E-score” value was 0.0954. For CCCTCAAA, the “PBM E-score” value came out at 0.142. As to AACGGGGT, the “PBM E-score” value amounted to 0.0935. For the sequence ACAAATGC, the “PBM E-score” value worked out at 0.196. With CGGAAACC, the “PBM E-score” value is -0.0362. The result for AGAAAACA reads 0.167. As to AAAGGACA, the “PBM E-score” value came to 0.177. On to TAGCCGCA, for which the “PBM E-score” value is -0.121.

Consider GTCATGGA, for which the “PBM E-score” value is 0.132. With CGGTATAA, the “PBM E-score” value worked out at 0.0772. In the case of AAGCCGTG, the “PBM E-score” value was -0.0561.

CGGGTTTC: the “PBM E-score” value came to 0.289. With AACAGATT, the “PBM E-score” value came out at 0.179. The result for ATATCCTG reads 0.103; that for CGGTTAAC, 0.232.

On to AGGCCTAC, for which the “PBM E-score” value is -0.114. Take GACCTCAC: the “PBM E-score” value amounted to 0.0004. With CATCGTTA, the “PBM E-score” value is -0.044.

For the sequence TCCCAGCA, the “PBM E-score” value was -0.092. Turning to ATTCATTA, the “PBM E-score” value was determined as 0.115. Consider CATTGTGG, for which the “PBM E-score” value stood at 0.0202. As to GAGGGCCA, the “PBM E-score” value is -0.0719. AAAACGCC: the “PBM E-score” value was -0.132. Consider AGACTGGC, for which the “PBM E-score” value was -0.349.

On to CTGTTGCA, for which the “PBM E-score” value was 0.201. Take ACCTCTTC: the “PBM E-score” value came out at 0.278. As to GCTATCTA, the “PBM E-score” value is -0.00521. With CTTCACTC, the “PBM E-score” value is -0.189. As for AAAACACT, the “PBM E-score” value was 0.14. Take GGCTTACC: the “PBM E-score” value is -0.036. As to CGTTAAGC, the “PBM E-score” value is -0.0783. The result for AGGCCCTC reads -0.0894; that for AACGAGAT, -0.115; that for CCAAGTAC, 0.135. Under AGAACGTC stands -0.105; under GATTCTCA, 0.0637; under ACCTGCGC, -0.0387.

AGGGACGC: the “PBM E-score” value came out at 0.0184.

On to AGGCATCG, for which the “PBM E-score” value is -0.158. Regarding CCCTAACA, the “PBM E-score” value stood at 0.255.

GAACGTAA: the “PBM E-score” value turned out to be 0.138. The result for GAGTCTGC reads -0.278; that for AAGCTGTC, -0.0854; that for CAGCCTTC, -0.181. Under GTACTGGA stands -0.00941; under AGTCCCGC, -0.068. For ACGTTGGA, the “PBM E-score” value is -0.00373. For CAATGACA, the “PBM E-score” value was -0.0734. In the case of CTACAGCA, the “PBM E-score” value is -0.115. As for GAGACCAA, the “PBM E-score” value worked out at 0.134. On to AATTAAGA, for which the “PBM E-score” value is -0.0073. As for ACTAAAAA, the “PBM E-score” value came out at 0.262. As for GCCTTTTA, the “PBM E-score” value came out at 0.0912.

As for GATCTTCA, the “PBM E-score” value is -0.123.

With CTCGAAAG, the “PBM E-score” value was determined as 0.035.

ACTCCCAA: the “PBM E-score” value was -0.0223. With CTAGACAG, the “PBM E-score” value was -0.122.

Take CGTTCTAG: the “PBM E-score” value was -0.00266. For the sequence ACTAGTAC, the “PBM E-score” value worked out at 0.0159. For GAGACATA, the “PBM E-score” value came to 0.0225. CGATCACA: the “PBM E-score” value came to 0.081.

The values are drawn from the supplement of paper PMC3334620.
